About 4,200 (1.3%) of roughly 330,000 compounds were called active. The inconclusive results got no clear call from the source; some entries with a clear call stand among them for comparison. Calls come from the whole dose curve; as a rule, active = well fitted activation curve with a large enough effect; inconclusive = small, poorly fitted or top-dose-only effect; inactive = no such curve, though single readings can be large or run the other way. Where the call is inconclusive, the potency comes from a doubtful curve fit.
Assay: qHTS screen for small molecules that induce genotoxicity in human embryonic kidney (HEK293T) cells expressing luciferase-tagged ELG1; note: nearly all actives have a fitted effect of over 60% in size; for activity change, positive = activation: % of control where 0% means no effect
Details: HEK293T ELG1-luciferase reporter, luminescence, 16 h; series mostly up to 46 µM; activity change, positive = activation: at the top concentration
Outline: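 Luminescence read-out: rising ELG1-luciferase signal, reflecting elevated ELG1 protein under genetic stress, flags genotoxic compounds. Cells were treated for 16 hr at 37 °C before ONE-Glo detection.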
Potency is the fitted concentration of half-maximal effect; tags give direction and shape of the fitted curve.

SMILES	Potency	activity change, positive = activation
O=C(Nc1ccc2c(c1)OCCO2)C1CCCN(S(=O)(=O)Cc2ccccc2)C1 (configuration not stated)	inconclusive: 11.6 µM [activator, partial curve, poor fit]	–
O=S(=O)(c1ccc2nc(Nc3ccccc3)ccc2c1)N1CCCCC1	–	inactive: -7.22%
Cc1cccn2c(N)c(-c3ccccc3)nc12	inconclusive: 20.6 µM [activator, partial curve, poor fit]	–
COC(=O)c1sc2nc(-c3ccco3)ccc2c1N	inconclusive: 1.16 µM [activator, full curve]	–
O=C(Nc1nc(-c2ccco2)c(-c2ccco2)s1)c1ccco1	inconclusive: 5.8 µM [activator, single point]	–
COc1ccccc1CCC(=O)Nc1nc2ccccc2[nH]1	inconclusive: 2.59 µM [activator, full curve, poor fit]	–
Cc1csc(NC(=O)c2ccc3c(c2)OCO3)n1	inconclusive: 6.51 µM [activator, single point]	–
Cc1cc(C(=O)CSc2nnc(N)s2)c(C)n1Cc1ccco1	active: 1.83 µM	–
Cc1cccc(NC(=O)/C(=C/c2cccc([N+](=O)[O-])c2)NC(=O)c2cccs2)c1	inconclusive: 29.1 µM [activator, single point]	–
COCCn1c(SCC(=O)Nc2ccc(F)cc2)nc2c([nH]c3ccccc32)c1=O	inconclusive: 32.6 µM [activator, partial curve, poor fit]	–
O=C(O)c1ccccc1CSc1nc2ccccc2o1	inconclusive: 16.4 µM [activator, single point]	–
N#Cc1ccccc1OCC(=O)NC1CCCCC1	inconclusive: 23.1 µM [activator, partial curve]	–
Cc1ccc2c(nc3s/c(=C/c4cccs4)c(=O)n32)c1C	active: 16.4 µM	–
CCN1CCCC1CNC(=O)c1cc2c(-c3cccc(OC)c3)nn(C)c2s1 (configuration not stated)	inconclusive: 20.6 µM [activator, partial curve, poor fit]	–
COc1ccc(-c2nn(-c3ccccc3)cc2/C=N/N=C(N)N)cc1OC	–	inactive: 0.015%
O=C(/C=C/c1ccccc1)Nc1ccc(Cl)cn1	inconclusive: 6.51 µM [activator, partial curve]	–
O=C(COc1ccc(/C=N/NC(=O)c2cc3ccccc3o2)cc1Br)Nc1ccccc1	inconclusive: 2.31 µM [activator, partial curve]	–
CCCCn1nnc(NC(=S)NC(=O)c2cccs2)n1	inconclusive: 23.1 µM [activator, partial curve, poor fit]	–
O=C(/C=C/c1c(F)cccc1Cl)Nc1nc2ccccc2[nH]1	inconclusive: 18.4 µM [activator, partial curve]	–
CC1CCN(c2nnc(N)s2)CC1	inconclusive: 1.84 µM [activator, full curve]	–
COc1cccc(CN(C)C(=O)c2ccc3c(=O)n4c(nc3c2)CCC4)c1OC	inconclusive: 25.9 µM [activator, single point]	–
CC(=O)NC(c1ccc2ccccc2c1)c1ccc2cccnc2c1O (configuration not stated)	inconclusive: 6.51 µM [activator, partial curve]	–
O=C(CNC(=O)c1ccc(Cl)cc1Cl)OCC(=O)N1CCCC1	–	inactive: -0.886%
CCCC(C(=O)O)n1c(O)c(C=C2N=c3ccccc3=N2)sc1=S (configuration not stated)	–	inactive: -1.3%

SMILES	Potency	activity change, positive = activation
O=C(NCCc1ccccc1)c1cc(-c2ccco2)on1	inconclusive: 18.4 µM [activator, partial curve]	–
O=C(O)c1cc(N/N=C/c2c(O)ccc3ccccc23)ccc1Cl	active: 14.6 µM	–
CC1CCCCN1S(=O)(=O)c1ccc(C(=O)Nc2sccc2C(N)=O)cc1 (configuration not stated)	inconclusive: 5.8 µM [activator, full curve]	–
CCCC(=O)NC(=S)Nc1cccc(Cl)c1N1CCCCC1	inconclusive: 23.1 µM [activator, single point]	–
CN1C(=O)[C@H]2[C@@H](c3ccc(F)cc3)N3C(=O)c4ccccc4NC(=O)[C@@]3(C)[C@H]2C1=O	–	inactive: 1.65%
CC(=O)Nc1cccc(-c2cc(C)c3cc4c(cc3n2)OCO4)c1	inconclusive: 20.6 µM [activator, single point]	–
CCOc1ccc(NC(=O)c2nn(C)cc2Br)cc1	inconclusive: 11.6 µM [activator, single point]	–
COc1cc(/C=N/NC(=S)NCCN2CCOCC2)cc(OC)c1OC	inconclusive: 18.4 µM [activator, partial curve, poor fit]	–
COc1ccc(/C=C/c2ccncc2)cc1OC	active: 23.1 µM	–
COc1ccc(C(=O)Nc2ccc(C(=O)Nc3cccnc3)cc2)cc1	inconclusive: 18.3 µM [activator, partial curve, poor fit]	–
Clc1ccc(CSc2snnc2-c2ccccc2)c(Cl)c1	inconclusive: 32.6 µM [activator, partial curve, poor fit]	–
Cc1ccc(/C=N/c2sc(Cc3ccccc3)c(C)c2C(N)=O)o1	–	inactive: 0.0884%
CCOC(=O)c1c(-c2ccc(C)o2)csc1NC(=O)CN1CCN(CC)CC1	–	inactive: -5.93%
CSc1ccc(CN(C)C(=O)C(Cc2ccccc2)NC(=O)c2ccccc2)cc1 (configuration not stated)	inconclusive: 9.2 µM [activator, partial curve]	–
CC(=O)c1sc(NC(=O)C=C(C)C)nc1C	active: 18.4 µM	–
CCOC(=O)c1c(NC(=O)C2C3CCC(O3)C2C(=O)O)sc(C)c1-c1ccc(C)cc1 (configuration not stated)	–	inactive: -0.447%
Cc1cc(C)c2c(CN3CCC(C)CC3)cc(=O)oc2c1	inconclusive: 20.6 µM [activator, partial curve, poor fit]	–
COc1ccc2nc(NC(=O)CC3Oc4ccccc4NC3=O)sc2c1 (configuration not stated)	inconclusive: 25.9 µM [activator, partial curve, poor fit]	–
CCOc1ccc(N=C2NC(=O)S/C2=C\c2ccc(N(C)C)cc2)cc1	inconclusive: 20.6 µM [activator, partial curve]	–
NC(=O)NC(=O)C(Nc1ccc(N2CCCCC2)cc1)c1ccccc1 (configuration not stated)	inconclusive: 20.6 µM [activator, partial curve, poor fit]	–
Cc1ccc(NC(=O)NCc2c(C)nn(C)c2C)cc1Cl	inconclusive: 23.1 µM [activator, partial curve]	–
O=C(Cc1ccc(-c2ccccc2)cc1)NCc1ccccc1	inconclusive: 5.17 µM [activator, full curve, poor fit]	–
CC(C)n1cnnc1SCC(=O)Nc1ccc(N2CCCCC2)cc1	inconclusive: 9.2 µM [activator, partial curve, poor fit]	–
COc1cccc2cc(C(=O)N3CCc4ccccc4C3)c(=O)oc12	inconclusive: 23.1 µM [activator, single point]	–

SMILES	Potency	activity change, positive = activation
O=C(Nc1ccc2c(c1)CCC2)Nc1ccc(F)cc1F	inconclusive: 6.51 µM [activator, partial curve]	–
O=C(N/N=C/c1ccsc1)c1c[nH]c2ccccc12	active: 16.4 µM	–
Cc1ccc(Oc2nc(-c3ccccc3)ncc2S(=O)(=O)c2ccc(C)cc2)cc1	–	inactive: -0.23%
Cc1c(CC(=O)O)c(=O)oc2cc3occ(-c4ccccc4)c3cc12	–	inactive: 4.57%
O=C(Nc1cccc(S(=O)(=O)NCc2ccco2)c1)c1cccc(Cl)c1	–	inactive: -3.19%
CCOc1ccc(C(=O)C(C)OC(=O)C2CCN(c3ccc(C(F)(F)F)cn3)CC2)cc1 (configuration not stated)	active: 18.3 µM	–
CN(C)c1nc(N)nc(CSc2nc3cc(Cl)ccc3o2)n1	active: 7.31 µM	–
CC(C)Cc1cc(C(=O)Nc2cccnc2)no1	active: 10.3 µM	–
CCSc1nnc(NC(=O)[C@H](C)NC(=O)c2ccccc2Cl)s1	–	inactive: -1.75%
Cn1nnc(NC(=O)c2cccc(OCc3ccccc3)c2)n1	–	inactive: -3.18%
COc1ccccc1NC(CC(=O)c1ccccc1)C(=O)OCC(=O)c1ccc(Br)cc1 (configuration not stated)	active: 2.06 µM	–
COc1ccc([C@H]2CC(=O)C=C(c3cc(C)ccc3OC)C2)cc1	–	inactive: 0.335%
Cc1ccc(C(=O)Nc2ccc(-c3csc(C)n3)cc2)cc1	inconclusive: 7.3 µM [activator, partial curve]	–
CCOc1cc(/C=C2\C(=O)ON=C2c2ccccc2)cc(Br)c1O	inconclusive: 18.3 µM [activator, partial curve, poor fit]	–
O=C(NCc1nnnn1-c1ccc(F)c(F)c1)c1ccc2c(c1)OCO2	–	inactive: 2.9%
O=C(Nc1ccc(N2CCCC2)c(Cl)c1)c1ccco1	inconclusive: 0.461 µM [activator, full curve]	–
O=C(CSc1nc2cc(Cl)ccc2o1)NC1CC1	–	inactive: 1.49%
COc1ccc2oc3ccc(OC)cc3c(=O)c2c1	inconclusive: 8.2 µM [activator, partial curve, poor fit]	–
CCOC(=O)C1CCCn2c1nc1sc3c(c1c2=O)CCCC3 (configuration not stated)	inconclusive: 29.1 µM [activator, single point]	–
COc1ccc(Cl)cc1C(=O)NNC(=O)c1cccs1	inconclusive: 32.6 µM [activator, partial curve, poor fit]	–
O=C(Nc1ccc(Cl)c(Cl)c1)Nc1ccccn1	inconclusive: 11.6 µM [activator, partial curve, poor fit]	–
COc1ccc(NC(=O)CCC(=O)Nc2nnc(CC(C)C)s2)cc1Cl	–	inactive: 1.59%
COc1ccc(C(=O)Nc2nc3ccc(OC)cc3s2)cc1	inconclusive: 5.17 µM [activator, partial curve, poor fit]	–
CCOC(=O)c1c(C)[nH]c(N=Nc2cccc(OC)c2)c1C	inconclusive: 2.06 µM [activator, full curve]	–

Reference: PubChem BioAssay AID504466 (National Center for Advancing Translational Sciences (NCATS), 2011)
